Results taken from PubChem BioAssay AID1030 (National Center for Advancing Translational Sciences (NCATS), 2008).
About 16,000 (7.3%) of roughly 220,000 compounds were called active. Inconclusive results, whose numbers are uncertain, are shown with a selection of clear calls. Calls follow the shape of the dose curve; as a rule, active = well fitted inhibition curve with a large enough effect (not every such curve was filed as active); inconclusive = small, poorly fitted or top-dose-only effect, or another doubt; inactive = no such curve, though single readings can be large or run the other way. No potency is given beside an inconclusive call; the fits are too rough.

What follows are compounds tested against Aldehyde dehydrogenase 1A1 (Homo sapiens) (UniProt P00352) (assay: qHTS Assay for Inhibitors of Aldehyde Dehydrogenase 1 (ALDH1A1)). Settings: Purified ALDH1A1, NADH fluorescence, propionaldehyde substrate; series mostly up to 75.3 µM.
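For activity, negative = inhibition in this document: plate controls were no enzyme wells and a reference inhibitor.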
Potency is read from the fitted curve at half-maximal effect; tags tell the direction and shape of the fitted curve.

Sequence of UniProt P00352 (P00352 whole entry, looked up): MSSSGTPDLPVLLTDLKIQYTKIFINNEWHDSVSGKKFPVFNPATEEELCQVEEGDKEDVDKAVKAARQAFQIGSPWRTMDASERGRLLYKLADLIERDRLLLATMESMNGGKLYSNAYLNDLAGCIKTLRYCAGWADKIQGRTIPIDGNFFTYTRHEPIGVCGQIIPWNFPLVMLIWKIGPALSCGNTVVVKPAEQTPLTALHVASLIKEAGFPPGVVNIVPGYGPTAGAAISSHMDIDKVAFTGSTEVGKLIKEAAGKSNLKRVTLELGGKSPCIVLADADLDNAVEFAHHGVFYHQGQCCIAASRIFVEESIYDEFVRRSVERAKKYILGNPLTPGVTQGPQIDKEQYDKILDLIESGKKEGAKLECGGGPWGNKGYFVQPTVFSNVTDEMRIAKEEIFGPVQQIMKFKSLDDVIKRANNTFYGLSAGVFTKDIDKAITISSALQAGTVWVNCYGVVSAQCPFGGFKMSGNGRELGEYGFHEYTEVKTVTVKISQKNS

Row | Structure (SMILES) | Potency | activity, negative = inhibition
1 | Cc1nc2ccccn2c1C(=O)OCC#N | active: 15.8 µM | –
2 | Cc1cc(S(=O)(=O)N(C)CCc2ccccc2)ccc1-n1cnnn1 | inconclusive [inhibitor, partial curve] | –
3 | O=C(NC(C(=O)c1ccccc1)N1CCCCCC1)c1ccco1 (centres undefined) | active: 14.1 µM | –
4 | Cc1ccc(C2=C/C(=C/c3cccs3)C(=O)O2)cc1 | inactive | –
5 | CCn1c(SCc2ccc(C#N)cc2)nnc1-c1ccc(S(=O)(=O)N2CCCCC2)cc1 | inconclusive [inhibitor, partial curve] | –
6 | CCOc1ccc(NC2C=CS(=O)(=O)C2)cc1 (centres undefined) | inconclusive [inhibitor, single point] | –
7 | Cc1ccc(OCC(=O)Nc2ccccc2N2CCOCC2)c(C)c1 | inconclusive [inhibitor, single point] | –
8 | CCCNC(=O)NS(=O)(=O)c1ccc(Cl)cc1 | inactive | –
9 | CCN(CC)C(C)CN1c2ccccc2Sc2ccccc21 (centres undefined) | inconclusive [inhibitor, single point] | –
10 | O=C(c1ccccc1)c1c2c(cc3sc4ccccc4[n+]13)-c1cccc3cccc-2c13 | inactive | –
11 | Cc1ccc(-n2c(C)nc3c(cnn3-c3ccc(C)c(C)c3)c2=O)cc1C | inconclusive [inhibitor, partial curve] | –
12 | Cc1cc(C(F)F)n2nc(C(=O)NCc3ccccc3F)nc2n1 | inconclusive [inhibitor, single point] | –
13 | C/C=C/CSc1nc2c(c(=O)[nH]c(=O)n2C)n1C(C)C | inconclusive [inhibitor, single point] | –
14 | COc1ccc(C2=CSC3=C(C(=O)c4cccc(S(=O)(=O)N(C)C)c4)CCN23)cc1 | active: 2 µM | –
15 | O=C(/C=C/c1ccco1)NC(=S)Nc1ccc(O)c(-c2nc3ccccc3s2)c1 | inconclusive [inhibitor, single point] | –
16 | Cc1cc(C)n2c(Br)c(CSc3nc4ccccc4o3)nc2n1 | inconclusive [inhibitor, partial curve] | –
17 | Cc1ccnc(NC(=O)C2CCN(S(=O)(=O)c3cccc4nonc34)CC2)c1 | inconclusive [inhibitor, single point] | –
18 | CN1CCN(CCc2ccc(Cl)c(Cl)c2)CC1 | inactive | –
19 | CC(=O)c1ccc(NC(=O)C2CCCN2S(=O)(=O)c2cccc3cccnc23)cc1 (centres undefined) | inconclusive [inhibitor, single point] | –
20 | CCn1cc(C(=O)NCc2ccccn2)c(=O)c2cc(S(=O)(=O)N3CCCCC3)ccc21 | active: 11.2 µM | –
21 | O=C(CC1Nc2ccccc2NC1=O)NC1CCCCC1 (centres undefined) | inconclusive [inhibitor, single point] | –
22 | Cc1oc2c(C)c3oc(=O)c4c(c3cc2c1C)CCC4 | inconclusive [inhibitor, full curve] | –
23 | O=C(CSc1nccc(-c2cccs2)n1)Nc1cccc(Cl)c1Cl | inconclusive [inhibitor, single point] | –
24 | COc1ccc2[nH]c(=O)c(C(c3nnnn3C(C)(C)C)N(Cc3ccco3)CC3CCCO3)cc2c1 (centres undefined) | inconclusive [inhibitor, partial curve] | –
25 | CCC(C)Nc1c([N+](=O)[O-])cc(C)cc1[N+](=O)[O-] (centres undefined) | inconclusive [inhibitor, single point] | –

Row | Structure (SMILES) | Potency | activity, negative = inhibition
26 | Nc1ccccc1Nc1ccccc1 | inconclusive [inhibitor, single point] | –
27 | COc1ccc2c(c1)[nH]c1c(=O)n(CC3CCCO3)cnc12 (centres undefined) | inconclusive [inhibitor, partial curve] | –
28 | COc1cccc(NC(=O)c2ccc3c(c2)N(CC(=O)N2CCCCC2)C(=O)C(C)(C)O3)c1 | inactive | –
29 | CC(C)(C)C1CCC(=NNC(=O)c2ccc(Br)o2)CC1 (centres undefined) | inactive | –
30 | CCC(CC)c1nnc(NC(=O)CN2C(=O)c3ccccc3C2=O)s1 | inactive | –
31 | CCCc1cc(=O)oc2cc(OCc3nn[nH]n3)ccc12 | inconclusive [inhibitor, single point] | –
32 | CCOC(=O)C1CCN(C(c2ccccn2)c2c(C)[nH]c3ccccc23)CC1 (centres undefined) | inconclusive [inhibitor, single point] | –
33 | CCOC(=O)c1cc([N+](=O)[O-])c([N+](=O)[O-])cc1NC(C)=O | active: 8.91 µM | –
34 | CCOC(=O)c1c(NC(=O)C2COc3ccccc3O2)sc(C(C)=O)c1C (centres undefined) | inconclusive [inhibitor, single point] | –
35 | O=C(c1cnc(N2CCN(c3ncccn3)CC2)c2ccccc12)N1CCN(c2ccccn2)CC1 | inconclusive [inhibitor, single point] | –
36 | Cc1ccc(C)c(C(=O)COc2ccccc2[N+](=O)[O-])c1 | inactive | –
37 | COC(=O)c1ccc(Nc2cc(C)nc3ncnn23)cc1 | inactive | –
38 | CC(=O)c1ccc(NC(=O)CSCC(=O)Nc2ccc3ccccc3c2)cc1 | inconclusive [inhibitor, partial curve] | –
39 | CN(C)/C=N/c1sc2c(c1C#N)CCC2 | active: 10 µM | –
40 | O=C1NC(c2ccc(Br)cc2)Nc2sc3c(c21)CCC3 (centres undefined) | inconclusive [inhibitor, single point] | –
41 | COC/C=C/C1=CC2=CC(=O)C(C)(OC(=O)c3cnc4ccccc4n3)C(=O)C2=CN1c1ccc(CO)cc1 (centres undefined) | – | inactive: 0.451% [at 13.5 µM]
42 | Cn1ccnc1SCC(=O)Nc1cccc(S(=O)(=O)N2CCCCC2)c1 | inactive | –
43 | Cc1ccc(CN2C(=O)CCC2C(=O)NCCN2CCOCC2)cc1 (centres undefined) | inconclusive [inhibitor, single point] | –
44 | CCOC(=O)c1c(N)sn(-c2ccccc2C)c1=S | active: 3.55 µM | –
45 | COc1ccc(/C=C2\SC(=S)NC2=O)cc1OS(=O)(=O)c1ccc(NC(C)=O)cc1 | active: 0.708 µM | –
46 | COc1cccc(-n2cnc3cccc(N)c32)c1 | inconclusive [inhibitor, single point] | –
47 | COc1ccccc1CNC(=O)c1ccc(OCc2c(C)noc2C)c(OC)c1 | inconclusive [inhibitor, partial curve] | –
48 | Cc1ccc(OCC(=O)N/N=C/c2cn(Cc3ccccc3)c3ccccc23)cc1 | inconclusive [inhibitor, single point] | –
49 | CN(C)S(=O)(=O)n1ccnc1 | inactive | –
50 | COC(=O)c1ccc(NC(=O)C23CC4CC(C2)CC(n2cnc(Cl)n2)(C4)C3)cc1 | inconclusive [inhibitor, single point] | –

Row | Structure (SMILES) | Potency | activity, negative = inhibition
51 | COc1cc(C2Nc3cc(Cl)c(S(N)(=O)=O)cc3S(=O)(=O)N2)cc(OC)c1OC (centres undefined) | inactive | –
52 | CC(=O)Nc1ccc(S(=O)(=O)Nc2nccc(/C=C/c3ccccc3F)n2)cc1 | inconclusive [inhibitor, full curve] | –
53 | CCOC(=O)C1=C(C)NC(=O)NC1c1ccc(OCC(N)=O)cc1 (centres undefined) | inactive | –
54 | N=C1C(c2nc3ccccc3c(=O)[nH]2)=C(O)CN1c1ccccc1 | inconclusive [inhibitor, full curve] | –
55 | CN(C)CCOc1ccccc1C(C)(C)C | inconclusive [inhibitor, partial curve] | –
56 | Cc1ccc(Oc2cc(N3CCOCC3)nc(-c3ccccc3)n2)cc1 | inconclusive [inhibitor, single point] | –
57 | O=C(CSc1nnc(-c2ccc(F)cc2)o1)N1CCN(C(=O)c2ccco2)CC1 | inactive | –
58 | CCOc1c2ccc(C(=O)NCc3ccco3)cc2nn1CC | inconclusive [inhibitor, partial curve] | –
59 | Cc1ccc2cccnc2c1 | inconclusive [inhibitor, single point] | –
60 | COc1ccc(C(=O)C2C(c3ccc(-c4ccccc4[N+](=O)[O-])o3)NC(=O)NC2(O)C(F)(F)F)cc1 (centres undefined) | active: 12.6 µM | –
61 | CN1CCN(Cc2c(O)ccc3cc(Br)ccc23)CC1 | active: 25.1 µM | –
62 | O=C(COc1ccccc1)N1CCN(c2ccc([N+](=O)[O-])c(N3CCCCC3)c2)CC1 | active: 10 µM | –
63 | Clc1ccc(-c2nnc3sc(Cc4cccs4)nn23)cc1 | active: 22.4 µM | –
64 | CC1(C)Cc2c(c(-c3ccco3)nc3n[nH]c(N)c23)CO1 | active: 25.1 µM | –
65 | Cc1ccccc1-n1c(SC/C(O)=C(\C#N)c2nc3ccccc3[nH]2)nnc1-c1ccncc1 | inconclusive [inhibitor, single point] | –
66 | C=C(C)CNC(=S)Nc1nc2c(cc1C(=O)OCC)CCCC2 | active: 1 µM | –
67 | O=C(CN1CCc2ccccc2C1)Nc1ccccc1N1CCCCCC1 | inconclusive [inhibitor, single point] | –
68 | CCN(CC)c1ccc(/C=N/NC(=O)c2ccc(O)cc2)cc1 | inconclusive [inhibitor, partial curve] | –
69 | O=C(Nn1c(-c2ccc(F)cc2)nc2ccccc2c1=O)C1CCCCC1 | inconclusive [inhibitor, single point] | –
70 | O=C(/C=C/c1c[nH]c2ccccc12)c1ccccc1 | active: 3.16 µM | –
71 | OCCCN1CCN(CCCOc2ccccc2-c2ccccc2)CC1 | inactive | –
72 | O=C(NCc1ccco1)c1ccc(N2CCCCC2)c([N+](=O)[O-])c1 | inconclusive [inhibitor, partial curve, poor fit] | –
73 | Cn1c(CN2CCCC2)nc2cc(NC(=O)c3cccs3)ccc21 | inconclusive [inhibitor, single point] | –
74 | CN(NC1CC(=O)N(c2ccccc2)C1=O)c1ccccc1 (centres undefined) | inconclusive [inhibitor, single point] | –
